Results are given in words; binding and its absence hold for the method and conditions named. For some assays here: Binding seen in cells or lysates may run through a third protein. Some binding calls cover weakened binding; strength is not graded here. Where a sequence is shown, tags or fusion partners need not be part of it.
T1: MCD1, full length, yeast two-hybrid fusion (pGBKT7) (Arabidopsis thaliana) (UniProt Q8GWA7)
T1 sequence: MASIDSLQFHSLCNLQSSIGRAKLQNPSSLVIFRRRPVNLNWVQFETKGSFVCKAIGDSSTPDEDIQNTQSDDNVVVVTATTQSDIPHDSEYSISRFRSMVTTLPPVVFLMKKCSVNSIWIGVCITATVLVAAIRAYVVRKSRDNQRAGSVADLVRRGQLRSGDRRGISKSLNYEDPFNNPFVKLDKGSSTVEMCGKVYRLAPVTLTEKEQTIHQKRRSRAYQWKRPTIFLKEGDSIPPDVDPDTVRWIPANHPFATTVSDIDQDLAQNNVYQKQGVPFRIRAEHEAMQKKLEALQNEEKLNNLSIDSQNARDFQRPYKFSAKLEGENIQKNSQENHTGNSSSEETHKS

T2: AtMinE1, full length, yeast two-hybrid fusion (pGBKT7) (Arabidopsis thaliana) (UniProt Q9C4Z7)
T2 sequence: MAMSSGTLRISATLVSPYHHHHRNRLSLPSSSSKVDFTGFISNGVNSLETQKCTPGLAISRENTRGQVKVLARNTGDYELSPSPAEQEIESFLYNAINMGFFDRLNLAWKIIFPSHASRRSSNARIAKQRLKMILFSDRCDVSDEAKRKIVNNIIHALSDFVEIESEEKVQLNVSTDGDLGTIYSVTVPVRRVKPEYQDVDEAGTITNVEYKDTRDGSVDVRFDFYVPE

T3: AtMinD1_(1)–62-GFP^C (Arabidopsis thaliana) (UniProt Q9MBA2)
T3 sequence: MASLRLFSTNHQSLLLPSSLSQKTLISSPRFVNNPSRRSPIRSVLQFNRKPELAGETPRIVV

T4: cdm751–62-GFP^C (Arabidopsis thaliana) (UniProt Q9MBA2)
T4 sequence: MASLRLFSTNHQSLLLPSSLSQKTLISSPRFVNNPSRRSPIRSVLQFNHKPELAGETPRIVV

T5: AtMinD1, full length, yeast two-hybrid fusion (Arabidopsis thaliana) (UniProt Q9MBA2)
T5 sequence: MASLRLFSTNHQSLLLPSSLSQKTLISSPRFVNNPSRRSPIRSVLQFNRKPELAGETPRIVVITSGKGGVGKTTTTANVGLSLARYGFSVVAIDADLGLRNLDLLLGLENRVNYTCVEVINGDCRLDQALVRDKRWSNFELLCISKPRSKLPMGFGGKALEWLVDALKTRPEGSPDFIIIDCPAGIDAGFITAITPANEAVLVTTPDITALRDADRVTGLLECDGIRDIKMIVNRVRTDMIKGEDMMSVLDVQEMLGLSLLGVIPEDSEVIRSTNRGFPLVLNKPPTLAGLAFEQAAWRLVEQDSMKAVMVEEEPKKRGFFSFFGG


Key:
[1] = molecular target: T1, MCD1, full length, yeast two-hybrid fusion (pGBKT7) (Arabidopsis thaliana); assay: two-hybrid; Gal4 system (pGADT7/pGBKT7) in S. cerevisiae Y2H Gold; growth on SD without Leu, Trp and His, with or without Aureobasidin A (40 ng/ml), 3-5 days at 28°C
[2] = molecular target: T2, AtMinE1, full length, yeast two-hybrid fusion (pGBKT7) (Arabidopsis thaliana); assay: as above
[3] = molecular target: T3, AtMinD1_(1)–62-GFP^C (Arabidopsis thaliana); assay: split reporter; GFP^C and GFP^N fusions co-expressed (35S promoter) in protoplasts of wild-type Arabidopsis (Col-0); reconstituted GFP fluorescence seen by microscopy
[4] = molecular target: T4, cdm751–62-GFP^C (Arabidopsis thaliana); assay: as above
[5] = molecular target: T5, AtMinD1, full length, yeast two-hybrid fusion (Arabidopsis thaliana); assay: two-hybrid; Gal4 system (pGADT7/pGBKT7) in S. cerevisiae Y2H Gold; growth on SD without Leu, Trp and His, with or without Aureobasidin A (40 ng/ml), 3-5 days at 28°C

Binder	binding [2]	binding [3]	further results
AtMinD1(R49H), full length, yeast two-hybrid fusion (protein, UniProt Q9MBA2 1-326) MASLRLFSTNHQSLLLPSSLSQKTLISSPRFVNNPSRRSPIRSVLQFNHKPELAGETPRIVVITSGKGGVGKTTTTANVGLSLARYGFSVVAIDADLGLRNLDLLLGLENRVNYTCVEVINGDCRLDQALVRDKRWSNFELLCISKPRSKLPMGFGGKALEWLVDALKTRPEGSPDFIIIDCPAGIDAGFITAITPANEAVLVTTPDITALRDADRVTGLLECDGIRDIKMIVNRVRTDMIKGEDMMSVLDVQEMLGLSLLGVIPEDSEVIRSTNRGFPLVLNKPPTLAGLAFEQAAWRLVEQDSMKAVMVEEEPKKRGFFSFFGG	binds weakly	–	–
ARC6, full length, yeast two-hybrid fusion (pGADT7) (protein, UniProt Q9FIG9 1-801) MEALSHVGIGLSPFQLCRLPPATTKLRRSHNTSTTICSASKWADRLLSDFNFTSDSSSSSFATATTTATLVSPPPSIDRPERHVPIPIDFYQVLGAQTHFLTDGIRRAFEARVSKPPQFGFSDDALISRRQILQAACETLSNPRSRREYNEGLLDDEEATVITDVPWDKVPGALCVLQEGGETEIVLRVGEALLKERLPKSFKQDVVLVMALAFLDVSRDAMALDPPDFITGYEFVEEALKLLQEEGASSLAPDLRAQIDETLEEITPRYVLELLGLPLGDDYAAKRLNGLSGVRNILWSVGGGGASALVGGLTREKFMNEAFLRMTAAEQVDLFVATPSNIPAESFEVYEVALALVAQAFIGKKPHLLQDADKQFQQLQQAKVMAMEIPAMLYDTRNNWEIDFGLERGLCALLIGKVDECRMWLGLDSEDSQYRNPAIVEFVLENSNRDDNDDLPGLCKLLETWLAGVVFPRFRDTKDKKFKLGDYYDDPMVLSYLERVEVVQGSPLAAAAAMARIGAEHVKASAMQALQKVFPSRYTDRNSAEPKDVQETVFSVDPVGNNVGRDGEPGVFIAEAVRPSENFETNDYAIRAGVSESSVDETTVEMSVADMLKEASVKILAAGVAIGLISLFSQKYFLKSSSSFQRKDMVSSMESDVATIGSVRADDSEALPRMDARTAENIVSKWQKIKSLAFGPDHRIEMLPEVLDGRMLKIWTDRAAETAQLGLVYDYTLLKLSVDSVTVSADGTRALVEATLEESACLSDLVHPENNATDVRTYTTRYEVFWSKSGWKITEGSVLAS	–	–	binding [5]: binds
ARC6-GFP^N (protein, UniProt Q9FIG9 68-801) ATLVSPPPSIDRPERHVPIPIDFYQVLGAQTHFLTDGIRRAFEARVSKPPQFGFSDDALISRRQILQAACETLSNPRSRREYNEGLLDDEEATVITDVPWDKVPGALCVLQEGGETEIVLRVGEALLKERLPKSFKQDVVLVMALAFLDVSRDAMALDPPDFITGYEFVEEALKLLQEEGASSLAPDLRAQIDETLEEITPRYVLELLGLPLGDDYAAKRLNGLSGVRNILWSVGGGGASALVGGLTREKFMNEAFLRMTAAEQVDLFVATPSNIPAESFEVYEVALALVAQAFIGKKPHLLQDADKQFQQLQQAKVMAMEIPAMLYDTRNNWEIDFGLERGLCALLIGKVDECRMWLGLDSEDSQYRNPAIVEFVLENSNRDDNDDLPGLCKLLETWLAGVVFPRFRDTKDKKFKLGDYYDDPMVLSYLERVEVVQGSPLAAAAAMARIGAEHVKASAMQALQKVFPSRYTDRNSAEPKDVQETVFSVDPVGNNVGRDGEPGVFIAEAVRPSENFETNDYAIRAGVSESSVDETTVEMSVADMLKEASVKILAAGVAIGLISLFSQKYFLKSSSSFQRKDMVSSMESDVATIGSVRADDSEALPRMDARTAENIVSKWQKIKSLAFGPDHRIEMLPEVLDGRMLKIWTDRAAETAQLGLVYDYTLLKLSVDSVTVSADGTRALVEATLEESACLSDLVHPENNATDVRTYTTRYEVFWSKSGWKITEGSVLAS	–	binds	–

More lines, main results first:

binding [2]	binding [3]	Binder	further results
binds weakly	–	AtMinD1, full length, yeast two-hybrid fusion (protein, UniProt Q9MBA2 1-326) MASLRLFSTNHQSLLLPSSLSQKTLISSPRFVNNPSRRSPIRSVLQFNRKPELAGETPRIVVITSGKGGVGKTTTTANVGLSLARYGFSVVAIDADLGLRNLDLLLGLENRVNYTCVEVINGDCRLDQALVRDKRWSNFELLCISKPRSKLPMGFGGKALEWLVDALKTRPEGSPDFIIIDCPAGIDAGFITAITPANEAVLVTTPDITALRDADRVTGLLECDGIRDIKMIVNRVRTDMIKGEDMMSVLDVQEMLGLSLLGVIPEDSEVIRSTNRGFPLVLNKPPTLAGLAFEQAAWRLVEQDSMKAVMVEEEPKKRGFFSFFGG	binding [1]: binds
–	binds	AtMinE1-GFP^N (protein, UniProt Q9C4Z7 31-229) SSSKVDFTGFISNGVNSLETQKCTPGLAISRENTRGQVKVLARNTGDYELSPSPAEQEIESFLYNAINMGFFDRLNLAWKIIFPSHASRRSSNARIAKQRLKMILFSDRCDVSDEAKRKIVNNIIHALSDFVEIESEEKVQLNVSTDGDLGTIYSVTVPVRRVKPEYQDVDEAGTITNVEYKDTRDGSVDVRFDFYVPE	binding [4]: no binding
–	binds	MCD1-GFP^N (protein, UniProt Q8GWA7 53-349) CKAIGDSSTPDEDIQNTQSDDNVVVVTATTQSDIPHDSEYSISRFRSMVTTLPPVVFLMKKCSVNSIWIGVCITATVLVAAIRAYVVRKSRDNQRAGSVADLVRRGQLRSGDRRGISKSLNYEDPFNNPFVKLDKGSSTVEMCGKVYRLAPVTLTEKEQTIHQKRRSRAYQWKRPTIFLKEGDSIPPDVDPDTVRWIPANHPFATTVSDIDQDLAQNNVYQKQGVPFRIRAEHEAMQKKLEALQNEEKLNNLSIDSQNARDFQRPYKFSAKLEGENIQKNSQENHTGNSSSEETHKS	–
